# Reference: PubChem BioAssay (NCATS)
# The list shows a part of the results. These are further read-outs of the screen, such as a control signal, another cell line or another target. No call is given for them. Compounds called inactive in the main read-out are mostly missing here. The note in brackets gives the kind of curve behind each potency; many fits are weak.
# Legend:
# [1] = qHTS Assay for Lipid Storage Modulators (AID 1519); settings: Drosophila S3 cells, BODIPY lipid droplet/cell ratio, laser cytometry, cells loaded with oleic acid
# In short: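 Cells seeded at 5,000 per well were treated with compounds over a concentration series and loaded with oleic acid (400 uM, as added). Lipid droplet fluorescence (488 nm excitation, 500-530 nm channel) was read by laser-scanning cytometry and normalized to 20 uM Triacsin C.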
# [2] = qHTS assay for small molecule antagonists of peroxisome proliferator-activated receptor gamma signaling (AID 588537); settings: HEK293 PPARg-UAS-bla, beta-lactamase ratio, antagonist mode; measured here: W460 blue channel
# In short: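 Antagonist-mode β-lactamase reporter screen run as a titration series. HEK293 PPARγ-UAS-bla cells are stimulated with rosiglitazone (50 nM final) for 16 h, then CCF4 is read at 460/530 nm. Data are scaled between DMSO and rosiglitazone and fitted to the Hill equation.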
# [3] = A High-Content qHTS Against Drug Library for the Identification of Small Molecules that Inhibit DYT1 Early Onset Primary Dystonia-Associated Cell Pathology (AID 1645839); settings: HEK293 Flp-In EGFP-delE TorsinA, punctate imaging, 48 h; measured here: cell count cytotoxicity
# In short: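 High-content imaging quantified EGFP-TorsinA mislocalization in HEK293-derived cells inducibly expressing DYT1 mutant torsinA, after 48 h exposure to compound given together with tetracycline induction. Cell count served as a toxicity channel alongside %pathology.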
# [4] = qHTS Assay for Modulators of Human Peripheral Myelin Protein 22 (PMP22) Expression/Activity (AID 1967); settings: Cell-based PMP22 reporter, dual-color luciferase ratio
# In short: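 Engineered MSC80 cells, Pmp22-promoter green and EF-alpha red luciferase reporters; 24h compound treatment at 37 °C. Concentration-response fits on green, red and ratio signals, each overlap-corrected, with %Activity normalized to untreated wells.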
# [5] = biological target: Nicotinamide N-methyltransferase (Homo sapiens) (UniProt P40261); assay: Confirmatory Screen for Target Class Profiling of Small Molecule Inhibitors of Methyltransferases (AID 1745852); settings: MTase-Glo luminescence, SAH detection, recombinant enzyme; measured here: NNMT inhibition potency;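 further: inhibitor potency for blocking SAH production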
# UniProt P40261, sequence (P40261 whole entry, looked up): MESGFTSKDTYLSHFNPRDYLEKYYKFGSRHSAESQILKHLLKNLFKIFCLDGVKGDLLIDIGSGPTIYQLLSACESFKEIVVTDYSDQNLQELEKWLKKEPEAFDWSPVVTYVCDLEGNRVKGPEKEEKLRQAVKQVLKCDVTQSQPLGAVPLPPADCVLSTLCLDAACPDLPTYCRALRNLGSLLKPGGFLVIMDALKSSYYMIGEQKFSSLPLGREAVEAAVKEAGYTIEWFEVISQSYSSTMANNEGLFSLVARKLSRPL
# [6] = qHTS Assay for Inhibitors of PDE-IV (AID 607); settings: HEK293 ACTOne CNG channel cells, membrane potential fluorescence; measured here: parental cell counter-screen;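 further: parental cells stimulated with forskolin 10 µM plus RO 20-1724 100 µM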
# In short: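 HEK293 ACTOne cells with CNG channel (1000/well), endogenous PDE4; membrane potential dye, compounds up to 22.9 uM final. Fluorescence Ex 535/Em 590; RO 20-1724 (100 uM final) as reference.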
# [7] = biological target: Catechol O-methyltransferase (Homo sapiens) (UniProt P21964); assay: Confirmatory Screen for Target Class Profiling of Small Molecule Inhibitors of Methyltransferases (AID 1745852); settings: MTase-Glo luminescence, SAH detection, recombinant enzyme; measured here: COMT inhibition potency;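 further: inhibitor potency for blocking SAH production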
# UniProt P21964, sequence (P21964 whole entry, looked up): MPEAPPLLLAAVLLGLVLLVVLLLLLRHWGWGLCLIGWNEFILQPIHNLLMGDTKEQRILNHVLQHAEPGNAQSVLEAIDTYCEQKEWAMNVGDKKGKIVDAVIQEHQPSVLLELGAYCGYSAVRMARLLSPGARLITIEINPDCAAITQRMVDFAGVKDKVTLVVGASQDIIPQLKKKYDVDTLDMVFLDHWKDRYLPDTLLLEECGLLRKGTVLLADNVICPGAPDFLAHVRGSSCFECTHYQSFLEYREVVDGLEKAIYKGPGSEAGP
# [8] = biological target: Histamine N-methyltransferase (Homo sapiens) (UniProt P50135); assay: as above; settings: MTase-Glo luminescence, SAH detection, recombinant enzyme; measured here: HNMT inhibition potency
# UniProt P50135, sequence (P50135 whole entry, looked up): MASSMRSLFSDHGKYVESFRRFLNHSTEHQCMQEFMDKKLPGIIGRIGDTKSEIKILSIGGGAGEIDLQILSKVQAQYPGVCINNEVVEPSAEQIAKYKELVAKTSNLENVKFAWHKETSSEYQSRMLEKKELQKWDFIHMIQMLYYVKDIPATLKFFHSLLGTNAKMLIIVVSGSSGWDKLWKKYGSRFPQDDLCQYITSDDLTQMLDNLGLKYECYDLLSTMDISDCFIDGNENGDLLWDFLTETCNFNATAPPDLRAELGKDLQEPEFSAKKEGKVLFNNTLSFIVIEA
# [9] = biological target: Phenylethanolamine N-methyltransferase (Homo sapiens) (UniProt P11086); assay: as above; settings: MTase-Glo luminescence, SAH detection, recombinant enzyme; measured here: PNMT inhibition potency
# UniProt P11086, sequence (P11086 whole entry, looked up): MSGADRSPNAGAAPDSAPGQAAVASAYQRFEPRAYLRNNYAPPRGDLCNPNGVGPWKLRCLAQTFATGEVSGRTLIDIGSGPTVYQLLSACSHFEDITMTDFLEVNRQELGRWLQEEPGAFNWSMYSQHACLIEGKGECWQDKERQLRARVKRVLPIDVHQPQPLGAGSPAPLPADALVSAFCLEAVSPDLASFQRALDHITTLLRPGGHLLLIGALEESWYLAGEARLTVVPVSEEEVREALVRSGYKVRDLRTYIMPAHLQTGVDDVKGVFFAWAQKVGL
# [10] = measured here: cell count channel max response
# [11] = measured here: cell number channel AC50
# [12] = measured here: lipid (BODIPY) channel AC50
# [13] = measured here: lipid channel max response
# Tags describe the fitted curve by direction and shape.
smiles,measurement,setting,value
CC(=O)N[C@@H](CS)C(=O)O,max response,[1]; [10],-41.8%
same,AC50,[1]; [11],"7.94 µM [falling, full curve, poor fit]"
same,AC50,[1]; [12],"12.6 µM [falling, partial curve, poor fit]"
same,max response,[1]; [13],-43.1%
same,AC50,[2],"0.00158 µM [falling, full curve, poor fit]"
same,AC50,[3],"11.2 µM [falling, partial curve, poor fit]"
CNCCCCOc1ccccc1Cc1ccccc1,max response,[1]; [10],42.5%
same,AC50,[1]; [11],"0.631 µM [rising, full curve, poor fit]"
same,AC50,[1]; [12],"31.6 µM [rising, single point]"
same,max response,[1]; [13],43.6%
same,AC50,[3],"10 µM [falling, partial curve, poor fit]"
CCC(=O)c1ccc2c(c1)N(CCCN(C)C)c1ccccc1S2,max response,[1]; [10],62.6%
same,AC50,[1]; [11],"35.5 µM [rising, partial curve, poor fit]"
same,AC50,[1]; [12],"35.5 µM [rising, partial curve, poor fit]"
same,max response,[1]; [13],63.4%
same,AC50,"[4]; measured here: green reporter channel AC50, mouse Pmp22 promoter in mouse Schwann cells","33.8 µM [falling, full curve]"
same,AC50,"[4]; measured here: red reporter channel AC50, EF-alpha promoter control reporter in MSC80 mouse Schwann cells","42.6 µM [falling, partial curve]"
same,AC50,[3],"12.6 µM [falling, partial curve]"
same,IC50,[5],"24.3 µM [falling, partial curve]"
Cn1c(=O)c(-c2ccc(Cl)cc2)nc2cnc(OCc3ccccc3)nc21,max response,[1]; [10],22.8%
same,AC50,[1]; [11],"0.447 µM [rising, full curve, poor fit]"
same,AC50,[1]; [12],"0.562 µM [rising, full curve]"
same,max response,[1]; [13],31.3%
CNCC[C@@H](Oc1ccccc1C)c1ccccc1,AC50,[6],"15.8 µM [rising, single point]"
same,max response,[1]; [10],55.2%
same,AC50,[1]; [11],"8.91 µM [rising, full curve]"
same,AC50,[1]; [12],"12.6 µM [rising, partial curve, poor fit]"
same,max response,[1]; [13],89.7%
same,AC50,[3],"11.2 µM [falling, partial curve, poor fit]"
CN(C)CCCn1cc(C2=C(c3c[nH]c4ccccc34)C(=O)NC2=O)c2ccccc21,max response,[1]; [10],80.7%
same,AC50,[1]; [11],"2.82 µM [rising, full curve]"
same,AC50,[1]; [12],"2 µM [rising, partial curve, poor fit]"
same,max response,[1]; [13],-38.5%
same,IC50,[7],"21.5 µM [falling, partial curve]"
same,IC50,[8],"17.1 µM [falling, partial curve]"
same,IC50,[5],"24.1 µM [falling, partial curve]"
same,IC50,[9],"21.5 µM [falling, partial curve]"
